Test results taken from PubChem BioAssay AID1345082 (National Center for Advancing Translational Sciences (NCATS), 2018).
About 4,000 (4.3%) of roughly 94,000 compounds were called active. This list was built around the results that the source calls inconclusive (neither active nor inactive); the mix of calls is not that of the screen. The call rests on the fitted dose curve; in most records, active means well fitted inhibition curve with a large enough effect; inconclusive means small, poorly fitted or top-dose-only effect; inactive means no such curve, though single readings can be large or run the other way. Potencies beside an inconclusive call are fits to weak or partial responses and may not hold up.

Assay: Cytotoxic Profiling in NIH 3T3 Cell Line of Diverse Libraries Using Quantitative High-Throughput Screening; further: nearly all actives have a fitted effect of over 55% in size
Settings: NIH 3T3 viability, CellTiter-Glo ATP luminescence, 48-72 h; activity change, negative = cytotoxicity: at 96.7 µM (top of the series) unless noted; series mostly up to 96.7 µM
How it was run: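 ATP-dependent luminescence (CellTiter-Glo) served as the viability signal for NIH 3T3 cells treated with compound for 48 or 72 hr at 37 °C.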
On the % scale 0 is the no-effect control and ±100 the full control effect; potency means the concentration at half of the fitted maximal effect; tags describe the fitted curve by direction and shape.

Structure (SMILES) | Potency | activity change, negative = cytotoxicity | outcome
COc1ccc2nc(C[C@@H]3C[C@@H](C(C)C)[C@H](CN(Cc4ccccc4F)Cc4ccccc4F)C=C3C)[nH]c2c1 | active: 14.1 µM | – | –
COc1cc(-c2[nH]ncc2CN(CCO)Cc2cccs2)cc(OC)c1OC | inconclusive: 28.2 µM [inhibitor, partial curve] | – | –
CCOC(=O)[C@H]1C[C@]2(CCCCN(CCOC)C2=O)N(C(=O)CC(C)C)[C@H]1c1ccco1 | – | inactive: -25.1% | –
CCOC(=O)[C@H]1CN(C(=O)c2cc3ccccc3oc2=O)[C@]2(C)C(=O)N(CC3CC3)c3ccccc3[C@H]12 | inconclusive: 44.7 µM [inhibitor, partial curve, poor fit] | – | –
C=CCCC(=O)N1[C@@H](c2ccccc2)[C@@H](C(=O)OCC)C[C@]12CCCCN(CCOC)C2=O | inconclusive: 70.8 µM [inhibitor, single point] | – | –
Cc1ccc(Cn2cc(-c3ccncc3)cc2C(=O)NCC2CC2)cc1 | inconclusive: 50.1 µM [inhibitor, partial curve, poor fit] | – | –
O=S(=O)(c1ccccc1)N1CC[C@@H]2COCCN(Cc3cccnc3)[C@@H]2C1 | – | inactive: -24.4% | –
COc1ncc(-c2nccc3c(=O)cc(N(C)c4ccccc4)oc23)cn1 | active: 31.6 µM | – | –
O=C(NC1CCN(c2cc(-c3ccc(F)cc3)[nH]n2)C1)c1cccnc1 (stereo not given) | inconclusive: 70.8 µM [inhibitor, single point] | – | –
O=C(c1nc(-c2ccccc2)c2ccccn12)N1CCOCC1 | inconclusive: 56.2 µM [inhibitor, partial curve, poor fit] | – | –
Cc1ccc(C2(O)CCN(c3nccc(CCC(F)(F)F)n3)CC2)nc1 | inconclusive: 50.1 µM [inhibitor, partial curve, poor fit] | – | –
CCOC(=O)N1CC(CN2C(=O)c3c(c(C)nn3-c3ccccc3)C2C2CC2)C1 (stereo not given) | active: 39.8 µM | – | –
O=C(c1ccc2c(c1)OCO2)N1CC2(Cc3ccccc3NC2=O)C1 | inconclusive: 25.1 µM [inhibitor, full curve, poor fit] | – | –
CCn1c(=O)c2ccnn2c2ccc(C(=O)Nc3ccc(C)c(F)c3)cc21 | – | inactive: -6.18% | –
Cn1nc(-c2cccc(F)c2)c(N2CCCC2)c1NC(=O)NCc1ccccc1 | inconclusive: 44.7 µM [inhibitor, partial curve, poor fit] | – | –
O=C(NCc1cccs1)c1nc(-c2cccnc2)c2ccccn12 | inconclusive: 50.1 µM [inhibitor, partial curve, poor fit] | – | –
COc1cccc(-c2cn3cc(C(=O)NCCc4ccccc4F)nc3s2)c1 | inconclusive: 50.1 µM [inhibitor, partial curve, poor fit] | – | –
COCCNC(=O)[C@@H]1C[C@@H](O)CN1C1CCN(C(=O)CCn2nc(C)cc2C)CC1 | – | – | inactive
COc1cc(C(=O)N2CCC[C@H]2c2nc(-c3ccccc3Cl)no2)cc(OC)c1OC | inconclusive: 44.7 µM [inhibitor, partial curve, poor fit] | – | –
O=C(Cn1cccc1-c1nc(-c2ccccc2)no1)Nc1cc(F)ccc1Cl | – | – | inactive
COc1cccc(CCNC(=O)c2c(C)nc3cnccn23)c1 | inconclusive: 79.4 µM [inhibitor, partial curve] | – | –
COC(=O)c1sccc1NC(=O)N1CCCC1Cc1noc(Cc2ccccc2)n1 (stereo not given) | inconclusive: 70.8 µM [inhibitor, single point] | – | –

Structure (SMILES) | Potency | activity change, negative = cytotoxicity | outcome
COc1ccccc1-c1cccc(CN2CCCC(C(=O)NCc3cccs3)C2)c1 (stereo not given) | inconclusive: 39.8 µM [inhibitor, partial curve, poor fit] | – | –
CC(C)(C)C(=O)N1CCC2(CC1)C(=O)N(CC(=O)Nc1cccc(Cl)c1)CN2c1ccccc1 | active: 31.6 µM | – | –
COc1ccc(OC)c(CN2CCNc3cnc(Nc4ccccc4)cc3C2)c1 | inconclusive: 79.4 µM [inhibitor, partial curve, poor fit] | – | –
CN(C)C(=O)c1cc2c(s1)CCC(C(=O)N1CCN(c3ccccc3)CC1)C2 (stereo not given) | inconclusive: 44.7 µM [inhibitor, partial curve, poor fit] | – | –
O=C(Nc1cccc(F)c1)N1Cc2[nH]cnc2C[C@H]1c1nc(-c2ccccc2)no1 | inconclusive: 100 µM [inhibitor, partial curve, poor fit] | – | –
CCN1C(=O)C2(CCN(C(=O)C3CCCCC3)CC2)c2ccccc21 | – | inactive: -18.3% | –
COc1ccc(CN2C=C(C(=O)OCc3nc(-c4ccc(F)cc4)no3)C(C)=NS2(=O)=O)cc1 | inconclusive: 11.2 µM [inhibitor, full curve, poor fit] | – | –
Cn1ncc2c(C(=O)NC3CCCCCC3)cc(-c3ccccc3C(F)(F)F)nc21 | inconclusive: 44.7 µM [inhibitor, partial curve] | – | –
Cc1cn2nnc(C(=O)N3CCC(C(=O)NCc4cccc(Cl)c4)CC3)c2c(=O)[nH]1 | – | inactive: -6.92% | –
Cc1ccc(-c2nc(N3CCOCC3)cc3c2CN(Cc2cnn(C)c2)C3=O)cn1 | inconclusive: 89.1 µM [inhibitor, partial curve, poor fit] | – | –
COc1ccc(-c2cc(-c3cnn(C)c3)cn3cncc23)cn1 | inconclusive: 50.1 µM [inhibitor, partial curve, poor fit] | – | –
COc1ccc2c(c1)CN(CC=C(C)C)C(=O)CCN2CC(O)COc1ccccc1 (stereo not given) | inconclusive: 50.1 µM [inhibitor, partial curve, poor fit] | – | –
COc1ccccc1CN1CC[C@H](c2nnc(Cc3c[nH]c4ccccc34)o2)C1 | inconclusive: 89.1 µM [inhibitor, partial curve, poor fit] | – | –
CNC(=O)C1CCCN(Cc2nc(-c3cccc(Oc4ccccc4)c3)oc2C)C1 (stereo not given) | inconclusive: 56.2 µM [inhibitor, partial curve, poor fit] | – | –
Cc1cc(C)c(CNC(=O)c2cc(-c3ccccc3F)cc3c2OCCN3C)c(=O)[nH]1 | active: 50.1 µM | – | –
O=C(c1ccncc1)N1CC2CCC(C1)N2Cc1cccc(-c2cccs2)c1 | inconclusive: 35.5 µM [inhibitor, partial curve, poor fit] | – | –
Cc1cc2nc3n(c(=O)c2n1CC(=O)Nc1ccc(F)c(Cl)c1)CCC3 | – | inactive: -25.7% | –
COc1cc(OC)cc(C(=O)N2CCCN(c3cc(-c4ccc(C)c(C)c4)[nH]n3)CC2)c1 | inconclusive: 44.7 µM [inhibitor, partial curve] | – | –
c1cc(-c2nnc([C@H]3CCN(C4CCCCC4)C3)o2)ccn1 | – | inactive: -12% [at 138 µM] | –
O=C(NCC(F)(F)F)C1CCCN1Cc1ccc(-c2cncnc2)cc1 (stereo not given) | – | inactive: -4.18% | –
O=c1[nH]nc2n1CCC(NS(=O)(=O)Cc1cccc(F)c1)CC2 (stereo not given) | – | inactive: -4.6% | –
O=C1Cc2c(-c3cccc4ccccc34)n[nH]c2CN1CCOc1ccccc1 | active: 44.7 µM | – | –

Structure (SMILES) | Potency | activity change, negative = cytotoxicity | outcome
CC(=O)NCC1CN(C(=O)NCc2ccc(OC(F)(F)F)cc2)CC12CCCCC2 (stereo not given) | inconclusive: 50.1 µM [inhibitor, partial curve, poor fit] | – | –
COc1ccc([C@H]2C[C@@H](O)[C@@H](O)[C@@H]2NC(=O)c2c(-c3ccccc3)noc2C)cc1 | inconclusive: 100 µM [inhibitor, single point] | – | –
CNC(=O)N1CCC(C2CCN(Cc3ccccc3C#N)C2)CC1 (stereo not given) | – | inactive: -10% | –
CC(=O)N1CCN(C(=O)c2nc3sccn3c2-c2ccccc2)CC1 | – | inactive: -2.42% | –
Fc1ccc2c(c1)nc1n2[C@@H](CNCc2ccccn2)COC1 | inconclusive: 63.1 µM [inhibitor, partial curve, poor fit] | – | –
O=C(NCC(F)(F)F)c1ccc2nc(-c3ccncc3)oc2c1 | inconclusive: 44.7 µM [inhibitor, partial curve, poor fit] | – | –
Cc1nn(C)c(C)c1S(=O)(=O)N1CCCC(CO)(Cc2ccccc2)C1 (stereo not given) | – | inactive: -27% | –
O=C(O)CC1(CC(=O)N[C@@H]2C=C(C(=O)N[C@H]3CCCNC3=O)C[C@@H](O)[C@@H]2O)CCCC1 | – | inactive: -15.2% | –
Cc1ccc(S(=O)(=O)N(C)Cc2cccc(C(F)(F)F)c2)cc1 | inconclusive: 50.1 µM [inhibitor, single point] | – | –
O=C(NCc1ccc(Cl)cc1)c1ccc2nnc(CC3CC3)n2c1 | inconclusive: 63.1 µM [inhibitor, partial curve, poor fit] | – | –
COc1ccccc1NC(=O)N1CCC2(CCNC(=O)CC2)CC1 | inconclusive: 35.5 µM [inhibitor, single point] | – | –
O=C(Nc1ccc(Cl)cc1)N1CCCN(c2ccc3nnc(C4CC4)n3n2)CC1 | – | inactive: -26% | –
Cc1noc2c(-c3cccc(O)c3)cc(-c3cccs3)nc12 | active: 39.8 µM | – | –
COC(=O)[C@@H]1Cc2c([nH]c3ccccc23)[C@H]2C[C@H](NCc3cccs3)C[C@@H](c3ccccc3)N21 | active: 25.1 µM | – | –
CC(=O)c1ccc(NC(=O)N2C[C@@H]3C[C@H](C2)c2ccc(NC(=O)c4ccc(F)cc4)c(=O)n2C3)cc1 | – | – | inactive
CC(=O)N1CCCN(c2cc(Cl)nc3ccnn23)CC1 | – | inactive: -19.1% [at 138 µM] | –
CCn1cc(-c2ccc(F)cc2)cc1C(=O)NCc1cccnc1 | inconclusive: 17.8 µM [inhibitor, full curve] | – | –
COc1ccccc1N1CCN(CC[C@@H]2CC[C@H](O)[C@@H](C(=O)NC3CC3)O2)CC1 | – | inactive: 0.799% [at 138 µM] | –
Cc1nc(-c2c3n(c(=O)n(Cc4ccc(OC(F)(F)F)cc4)c2=O)CCCC3)no1 | inconclusive: 50.1 µM [inhibitor, partial curve, poor fit] | – | –
COC(=O)[C@@H]1C[C@H](NC(=O)c2ccc(Oc3ccccc3)cc2)CN1C | – | inactive: -22.2% | –
O=c1ncn(CC2CC2)c2ccc(-c3ccc4c(c3)OCO4)nc12 | inconclusive: 56.2 µM [inhibitor, partial curve, poor fit] | – | –
